Out of some 310,000 compounds screened, about 2,200 (0.71%) showed an effect of 50% or more. The effect is printed as a negative number. Some of the results follow.
Molecular target: human ether-à-go-go-related gene (hERG) potassium channel (human, UniProt Q12809)
Assay: primary screen, population patch clamp on CHO cells stably expressing hERG

Chain of human ether-à-go-go-related gene (hERG) potassium channel (Q12809 whole entry, looked up): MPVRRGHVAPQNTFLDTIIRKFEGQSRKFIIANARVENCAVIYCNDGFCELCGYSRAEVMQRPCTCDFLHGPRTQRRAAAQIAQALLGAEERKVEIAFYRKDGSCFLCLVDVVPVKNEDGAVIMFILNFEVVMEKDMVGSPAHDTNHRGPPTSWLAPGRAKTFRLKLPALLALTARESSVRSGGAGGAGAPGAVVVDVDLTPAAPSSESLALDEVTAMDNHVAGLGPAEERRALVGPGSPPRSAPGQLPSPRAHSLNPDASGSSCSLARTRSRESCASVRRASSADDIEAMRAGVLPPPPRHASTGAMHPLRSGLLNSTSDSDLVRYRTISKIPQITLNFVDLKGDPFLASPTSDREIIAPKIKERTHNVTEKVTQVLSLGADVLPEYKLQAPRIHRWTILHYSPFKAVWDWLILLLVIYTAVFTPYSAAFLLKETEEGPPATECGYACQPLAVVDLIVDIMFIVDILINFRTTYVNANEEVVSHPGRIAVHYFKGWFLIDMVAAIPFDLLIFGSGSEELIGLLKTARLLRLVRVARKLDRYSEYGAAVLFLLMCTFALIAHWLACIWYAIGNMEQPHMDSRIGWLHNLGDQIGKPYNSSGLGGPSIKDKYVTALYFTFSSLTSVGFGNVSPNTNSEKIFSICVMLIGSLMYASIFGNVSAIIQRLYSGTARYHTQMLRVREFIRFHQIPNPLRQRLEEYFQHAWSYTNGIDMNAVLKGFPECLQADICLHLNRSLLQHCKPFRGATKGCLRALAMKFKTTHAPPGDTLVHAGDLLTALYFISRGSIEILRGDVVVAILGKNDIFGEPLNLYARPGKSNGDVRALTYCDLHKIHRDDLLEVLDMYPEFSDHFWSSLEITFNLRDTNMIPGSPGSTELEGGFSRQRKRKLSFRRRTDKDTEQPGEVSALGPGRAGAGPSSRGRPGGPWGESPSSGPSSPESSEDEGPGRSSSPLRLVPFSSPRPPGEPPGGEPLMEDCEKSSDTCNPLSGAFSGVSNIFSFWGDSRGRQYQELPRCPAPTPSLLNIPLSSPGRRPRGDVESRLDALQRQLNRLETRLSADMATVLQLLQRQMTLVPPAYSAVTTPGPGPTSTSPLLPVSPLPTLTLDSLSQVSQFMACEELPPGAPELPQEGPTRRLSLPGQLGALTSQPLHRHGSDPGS

Compound | hERG current change (%, negative = inhibition) at 1uM [%]
CCOc1ccccc1N1CCN(CC(O)COc2ccc3c(C)cc(=O)oc3c2)CC1 (stereo not drawn) | -3.83
N#Cc1c(NC(=O)c2cccnc2)sc2c1CCC2 | 13.9
O=C(COC(=O)C1CCCCC1)Nc1cccc(Br)c1 | 9.92
COc1ccc(NC(=O)Cn2nnc(-c3ccccc3NC(=O)c3cccs3)n2)cc1 | 13.2
CCNc1nc(Cl)nc(NCCOc2ccc(C)cc2)n1 | -3.4
O=C(O)CC1=C(O)C(=O)N(c2ccccc2)C1c1ccc(Br)cc1 (stereo not drawn) | 13.8
CCSc1nnc(NC(=O)C(NC(=O)c2ccc(Cl)cc2)C(C)C)s1 (stereo not drawn) | 10.1
Cc1ccc(-c2csc(NC(=O)C3=COCCO3)n2)cc1C | 10.9
O=C(N/N=C/c1ccco1)c1cc(-c2ccc3ccccc3c2)n[nH]1 | 12.8
CN=C1S/C(=C\c2ccc(O)c(Br)c2)C(=O)N1C | 8.05
Cc1cccc(NC(=O)c2ccccc2-c2ccccc2)c1 | -3.82
Oc1c(CN2CCc3ccccc3C2)cc(Cl)c2cccnc12 | 4.7
CCn1c(SCc2cccc(C)c2)nnc1-c1ccc(C)cc1 | -1.21
Cc1c(C#N)c2ccccc2n1CC(=O)N1CCCc2ccccc21 | 6.71
Cc1ccc2c(c1)N(CC(=O)NCC1CCCO1)C(=O)C(C(C)C)O2 (stereo not drawn) | 5.4
CCc1noc(C)c1C(=O)OC(C)C(=O)Nc1cc([N+](=O)[O-])ccc1OC (stereo not drawn) | -1.71
CSc1nc(C)cc(Oc2ccc(OCC(N)=O)nn2)n1 | 12.4
N#Cc1cc([N+](=O)[O-])c(-n2nnc3ccccc32)c([N+](=O)[O-])c1 | 10.4
Cc1cc(NC(=O)CSc2nnc(CNC(=O)c3c(F)cccc3F)o2)no1 | 7.29
COc1ccccc1C(=O)Nc1ccc2nc(SCC(=O)N(C)C)sc2c1 | 1.71
O=C(CN1CCCCCC1)Nc1cc([N+](=O)[O-])ccc1Cl | 13.4
CN1CCCC1CCNc1ccc2sc3ccccc3c(=O)c2c1 (stereo not drawn) | 3.29
Cc1ccc(N2C(=O)SC(N(CC(=O)O)c3ccc(C)cc3)C2=O)cc1 (stereo not drawn) | 12.9

Compound | hERG current change (%, negative = inhibition) at 1uM [%]
COc1ccc(-c2nnc3ccc(SCC(=O)N4CCCCCC4)nn23)cc1OC | 9.4
CCn1c(SCC(=O)Nc2sccc2C(N)=O)nnc1C1CC1 | 8.64
Cn1c2c(c(=O)n(C)c1=O)CN(CCc1ccccc1)CN2 | 1.89
C=CCc1ccc(OCCn2nnc3ccccc32)c(OC)c1 | 3.6
CCC(C)(NC(=O)CNC(C)=O)C(=O)NC1CCCCC1 (stereo not drawn) | 2.79
O=C(c1nn2c(C(F)(F)F)cc(-c3ccco3)nc2c1Br)N1CCCc2ccccc21 | 5.48
CC(C(=O)Nc1ccc(S(=O)(=O)N2CCOCC2)cc1)N1C(=O)C2CC=CCC2C1=O (stereo not drawn) | 14.3
COc1ccccc1OCc1nc(-c2cccc([N+](=O)[O-])c2)no1 | -1.1
O=S(=O)(NC1CCCCC1Sc1ncccn1)c1ccccc1 (stereo not drawn) | 5.51
O=C(Nc1ccccn1)c1cccc(S(=O)(=O)N2CCc3ccccc3C2)c1 | -6.16
Nc1c(S(=O)(=O)c2ccccc2)csc1C(=O)O | -7.3
CCN(CC(=O)Nc1ccc(NC(C)=O)cc1)C(=O)c1oc2c(ccc3ccccc32)c1C | 9.65
COC(=O)c1ccc(NC(=O)c2ccco2)cc1 | 2.71
Cc1sc(-c2cccnc2)nc1OC(=O)C1CC1 | 19.4
CC(=O)Nc1ccc(NC(=O)CSc2nnnn2-c2ccc(F)cc2)cc1 | 12.4
Cc1ccc(C)c(Nc2c(F)c(F)c(F)c(F)c2C(=O)O)c1 | 12.5
CCCc1nnc(NC(=O)CCCC(=O)O)s1 | 13.5
COC(=O)c1ccc(C(=O)OC)c(NC(=S)N2CCOCC2)c1 | 7.55
FC(F)(F)c1ccccc1NC(=S)NC1CCN(Cc2ccccc2)CC1 | 10.4
C[C@H](NC(=O)c1ccccc1F)C(=O)N1CCC2(CC1)NCCc1[nH]cnc12 | 12
O=C(NCC(c1ccco1)N1CCc2ccccc2C1)C(=O)Nc1cc(F)ccc1F (stereo not drawn) | -20.7
Cc1ncsc1CCC(=O)N1CCCC(Nc2ccc(F)c(F)c2)C1 (stereo not drawn) | 1.78
CCc1ccccc1NC(=O)Cn1ccn(-c2ccc(OC)cc2)c(=O)c1=O | 11.6

Compound | hERG current change (%, negative = inhibition) at 1uM [%]
O=C(NC(c1ccccc1)c1ccccc1)c1ccc(S(=O)(=O)C(F)F)cc1 | 14.5
COc1ccc(CCNC(=O)COc2ccc(C)nc2[N+](=O)[O-])cc1OC | 2.94
COc1ccccc1-n1c(SCC(=O)N2CCCC2)nc2cccnc21 | 5.21
CC1(C)CC(=O)C2=C(C1)NCN(Cc1ccccc1)C2 | -2.47
COCCOC1CCN(Cc2cn(Cc3ccccc3)nc2-c2cc3ccccc3o2)CC1 | -20.7
COCc1cc(=O)[nH]c(-c2csc(C)n2)n1 | 12
CCCN(CC#CCO)CCC | 7.67
CC(=O)N1CCc2cc(S(=O)(=O)NCC(=O)NCc3ccccc3Cl)ccc21 | 4.4
CCOc1ccccc1C1SCC(=O)Nc2c1c(=O)[nH]n2C(CC)CC (stereo not drawn) | 9.43
CCc1ccc(C(C(=O)NC2CCCC2)N(C(=O)c2csnn2)C2CC2)cc1 (stereo not drawn) | 7.66
Cc1cccc(CCNC(=O)c2oc3c(C)c(C)ccc3c2C)n1 | 16.8
COc1ccc(S(=O)(=O)NCCc2cn3cccc(C)c3n2)cc1OC | 13.7
C/C(N)=C(/C#N)C(=O)COC(=O)Cc1coc2cc(C)ccc12 | 10.9
CSCC[C@H](NC(=O)OC(C)(C)C)C(=O)N/N=C/c1c(C)[nH]c(=O)[nH]c1=O | 22.5
CC(C)Sc1nc2c([nH]1)c(=N)ncn2Cc1ccccc1 | 8.86
CCn1c(SCC(=O)NCCc2ccccc2)nc2sc3c(c2c1=O)CCN(C)C3 | 10.4
CC(=O)Nc1ccc(S(=O)(=O)Nc2ccccc2C(=O)N2CCOCC2)cc1 | 15.9
COc1ccc(CCN2C(=O)c3ccncc3C2=O)cc1OC | 8.98
Cc1cc(Cl)ccc1NC(=S)N1CCN(Cc2ccc3c(c2)OCO3)CC1 | 10.3
O=C(c1ccc(Cl)cc1)N1CCCC(C(=O)N2CCCCC2)C1 (stereo not drawn) | 13.8
CCCCNC(=S)N(C)/N=C/c1ccc(OCC(=O)Nc2c(C)cc(C)cc2C)c(OC)c1 | 7.54
COC(=O)C(Cc1c[nH]c2ccccc12)NC(=O)C1CC1 (stereo not drawn) | 6.74
Cc1cccc(C2NS(=O)(=O)N=C2N)c1 (stereo not drawn) | 5.09

Compound | hERG current change (%, negative = inhibition) at 1uM [%]
CCN=C1SC(CC(=O)NC(N)=O)C(=O)N1CC (stereo not drawn) | 10.4
Cc1ccc(-n2cc(S(=O)(=O)c3ccc(C)cc3)[nH]c2=O)cc1 | 9.05
CN(Cc1ccccc1)C(=O)C1CCCN1S(=O)(=O)c1ccc2c(c1)n(C)c(=O)c(=O)n2C (stereo not drawn) | 9.53
COc1cc(Cc2nc3ccc(S(=O)(=O)N4CCOCC4)cc3[nH]2)cc(OC)c1OC | 14.4
COC(=O)C1(C(F)(F)F)N=C(C(F)(F)F)Nc2ccc(Cl)cc21 (stereo not drawn) | 9.65
COc1ccc(-c2cc(C(F)(F)F)c(C#N)c(SCC(=O)O)n2)cc1 | 5.45
CC1(C)OC(c2ccccc2)=C/C(=C/C=C2C(=O)NC(=O)NC2=O)O1 | 13.7
Cc1cc(C(=O)Nc2c(F)cc(F)cc2Br)no1 | 13.2
Cc1cc(Cl)ccc1OCCNC(=S)NC(=O)c1cccnc1 | 12.3
O=C(c1cccc(S(=O)(=O)N2CCCC2)c1)N1CCN(c2ccccc2F)CC1 | -8.64
O=C(Nc1ccccc1[N+](=O)[O-])c1cc2ccccc2nc1Cl | 9.96
CC1(C)Cc2c(sc3nc(-c4ccccc4)n(N)c(=O)c23)CO1 | 11.7
O=C(O)c1sc2ncccc2c1OCc1ccccc1 | 8
Cc1c(Cl)cccc1NC(=S)N1CCN(c2ccccn2)CC1 | 9.46
C=CCN=C1SC(C)C(=O)N1S(=O)(=O)c1ccccc1 (stereo not drawn) | 4.31
NC(=O)c1ccc(NC(=O)COC(=O)CCCc2c[nH]c3ccccc23)cc1 | 19.6
O=C(Nc1cc(C(F)(F)F)ccc1N1CCOCC1)c1ccccc1F | 13.3
CCCCNC(=O)CCc1c(C)nc2c(c(C)nn2-c2ccccc2)c1C | -1.82
O=C(Oc1cccc2c(=O)[nH]ccc12)c1ccccc1 | -0.679
N#C/C(=C\C=C\c1ccccc1)C(=O)NCc1cccnc1 | 11.2
CC(=O)Nc1ccc(NC(=O)C2CCCN(S(=O)(=O)c3ccc(-n4cnnn4)cc3)C2)cc1 (stereo not drawn) | 3.32

From article PMC4336329 (PLoS ONE, 2015)
